Test results: patent US11963941B2, “Use of a fasting mimicking diet to enhance the efficacy of antiestrogens in cancer” (UNIVERSITA' DEGLI STUDI DI GENOVA, priority 2016, dated 2024)

How the values were obtained:
Assay type in all cases: cell-based
ZR-75-1 cells [1] = experiment: Cell cycle analysis (G1 arrest); conditions: 10 μM tamoxifen, 24 h, FIG. 2B
ZR-75-1 cells [2] = experiment: Cell viability in control vs fasting mimicking (FMD) medium; conditions: FMD = low-glucose (0.5 g/L) DMEM, 1% FBS, vs regular medium, FIG. 1B
ZR-75-1 cells [3] = experiment: Gene expression by QPCR

| Compound | induction of a G1 cell cycle arrest, drug + FMD (ZR-75-1 cells [1]) | cell viability: potentiation of drug activity by FMD conditions (ZR-75-1 cells [2]) | TTF1 expression (ERα-mediated transcription) (ZR-75-1 cells [3]; FMD + tamoxifen 5 μM, 24 h, FIG. 4B) | RAD51 expression at the mRNA level (ZR-75-1 cells [3]; FMD + tamoxifen 5 μM, 24 h, FIG. 6A) | downregulation of cell cycle promoting genes (E2F1, E2F2 and CCNE1) (ZR-75-1 cells [3]; FMD + tamoxifen 10 μM vs single treatments, FIG. 2D) |
| --- | --- | --- | --- | --- | --- |
| C[C@]12CC[C@@H]3c4ccc(O)cc4C[C@@H](CCCCCCCCC[S+]([O-])CCCC(F)(F)C(F)(F)F)[C@H]3[C@@H]1CC[C@@H]2O (stereo partly drawn) [fulvestrant] | increased the ability | – | – | – | – |
| CC/C(=C(\c1ccccc1)c1ccc(OCCN(C)C)cc1)c1ccccc1 [tamoxifen] | increased the ability | strong potentiation | increase the ability of tamoxifen to reduce TTF1 expression | strong RAD51 downregulation | more pronounced |
